Screen size: about 390,000 compounds; about 17,000 (4.4%) were called active. This list was built around the results that the source calls inconclusive (neither active nor inactive); the mix of calls is not that of the screen. The call rests on the fitted dose curve; in most records, active means well fitted inhibition curve with a large enough effect; inconclusive means small, poorly fitted or top-dose-only effect; inactive means no such curve, though single readings can be large or run the other way. Potencies of inconclusive entries are doubtful fits and often do not repeat.
These compounds were tested against Lysine-specific demethylase 4A (Homo sapiens) (UniProt O75164) (assay: qHTS Assay for Inhibitors of JMJD2A-Tudor Domain). Settings: AlphaScreen JMJD2A-Tudor / H3K4me3 peptide binding; activity change, negative = inhibition: at 114 µM (top of the series).
UniProt O75164, sequence (O75164 whole entry, looked up, the tested form may be a part): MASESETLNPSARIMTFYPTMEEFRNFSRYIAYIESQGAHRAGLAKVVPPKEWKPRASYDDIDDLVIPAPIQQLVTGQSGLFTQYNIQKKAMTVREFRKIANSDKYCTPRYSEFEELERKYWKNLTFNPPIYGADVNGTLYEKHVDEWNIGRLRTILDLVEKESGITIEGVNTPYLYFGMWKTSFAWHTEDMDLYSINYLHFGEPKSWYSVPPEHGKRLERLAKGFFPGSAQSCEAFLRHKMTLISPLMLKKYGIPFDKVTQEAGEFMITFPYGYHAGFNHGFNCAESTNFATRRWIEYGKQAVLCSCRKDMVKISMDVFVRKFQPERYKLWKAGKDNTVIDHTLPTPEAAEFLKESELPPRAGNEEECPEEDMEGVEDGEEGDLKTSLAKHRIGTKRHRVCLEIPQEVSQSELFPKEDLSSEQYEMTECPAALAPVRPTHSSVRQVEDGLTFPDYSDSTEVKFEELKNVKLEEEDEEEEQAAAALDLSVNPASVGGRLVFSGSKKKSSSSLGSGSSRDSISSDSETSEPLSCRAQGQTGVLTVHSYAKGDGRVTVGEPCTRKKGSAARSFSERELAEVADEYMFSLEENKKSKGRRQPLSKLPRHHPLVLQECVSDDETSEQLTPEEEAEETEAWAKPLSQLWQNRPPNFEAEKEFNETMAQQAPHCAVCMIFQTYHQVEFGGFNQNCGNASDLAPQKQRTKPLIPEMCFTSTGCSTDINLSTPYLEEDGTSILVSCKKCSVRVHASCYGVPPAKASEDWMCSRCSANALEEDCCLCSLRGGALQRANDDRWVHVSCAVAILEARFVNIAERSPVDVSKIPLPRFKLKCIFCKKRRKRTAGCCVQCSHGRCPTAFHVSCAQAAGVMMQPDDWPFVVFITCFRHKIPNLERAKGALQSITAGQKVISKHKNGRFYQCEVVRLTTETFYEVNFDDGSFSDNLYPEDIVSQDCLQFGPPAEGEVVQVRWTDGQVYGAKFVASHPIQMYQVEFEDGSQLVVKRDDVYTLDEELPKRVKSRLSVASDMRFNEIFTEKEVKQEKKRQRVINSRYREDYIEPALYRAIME
In the case of `Clc1ccccc1-c1nnc2sc(-c3ccncc3)nn12`, the Potency is reported as inconclusive: 28.2 µM [inhibitor, full curve]. `COc1ccc(C2=Nc3ccccc3C2(O)CCN2C(=O)c3ccccc3C2=O)cc1` (stereo unspecified) was tested, and the Potency was inconclusive: 100 µM [inhibitor, partial curve, poor fit]. With `N#CCCn1cc(C(N)=O)c(-c2ccc3ccccc3c2)n1` the Potency was inconclusive: 39.8 µM [inhibitor, single point]. For `CCCC(c1nnnn1Cc1cccs1)N1CCN(c2ccc(OC)cc2)CC1` (stereo unspecified), the Potency was inconclusive: 50.1 µM [inhibitor, partial curve]. With `Cc1nn(C(C)C(=O)NCc2cccc(F)c2)c(=O)c2c1sc1ccccc12` (stereo unspecified) the Potency was inconclusive: 15.8 µM [inhibitor, full curve]. In the case of `N#CC1=C(N)OC2=C(CC/C2=C\c2ccccc2)C1c1ccccc1` (stereo unspecified), the Potency is reported as inconclusive: 14.1 µM [inhibitor, partial curve]. For `CCc1ccc(-c2csc(-c3cc4cc(Br)ccc4oc3=O)n2)cc1`, the “activity change, negative = inhibition” value was inactive: 25.7%. With `CCCCCCCCCCS(=O)(=O)N/N=C/c1ccc([N+](=O)[O-])cc1` the Potency was inconclusive: 31.6 µM [inhibitor, full curve]. With `Nc1c(C(=O)Nc2ccc(F)cc2)sc2nc(-c3ccco3)ccc12` the “activity change, negative = inhibition” value was inactive: -15.7%. With `COc1ccc(/C=N/N2CCN(C3c4ccccc4-c4ccccc43)CC2)cc1O` the Potency was inconclusive: 28.2 µM [inhibitor, single point]. In the case of `O=C(CNc1ccc2ccccc2c1)N/N=C/c1cc2ccccc2nc1Cl`, the Potency is reported as inconclusive: 14.1 µM [inhibitor, full curve]. `N#CC1=C(S)N(c2ccccc2)C(c2ccc(-c3ccc(Cl)c(Cl)c3)o2)NC1=O` (stereo unspecified) was tested, and the Potency was inconclusive: 79.4 µM [inhibitor, partial curve]. For `COc1ccc(S(=O)(=O)N2CC(C)N(C(=O)N(C)C)C2C(C)C)cc1` (stereo unspecified), the “activity change, negative = inhibition” value was inactive: -13.3%. In the case of `CSc1nc(N(C)CCO)c2sc3nc(-c4ccco4)c4c(c3c2n1)CCC4`, the Potency is reported as active: 25.1 µM. `CCCCc1nc2sc3c(SCCN(C)C)ncnc3c2c2c1CCC2` was tested, and the Potency was active: 50.1 µM. With `CNC(=O)CSc1ncnc2c1cnn2-c1ccccc1` the “activity change, negative = inhibition” value was inactive: 4.47%. `COc1cc(CNCc2cccc(OC)c2OC)cc(OC)c1` was tested, and the Potency was active: 25.1 µM. In the case of `CCc1ccc(CNc2ccc(N3CCN(C(C)=O)CC3)cc2)cc1`, the Potency is reported as inconclusive: 56.2 µM [inhibitor, partial curve]. For `COC(=O)c1ccc2c(c1O)C(=O)c1ccccc1C2=O`, the Potency was inconclusive: 35.5 µM [inhibitor, partial curve]. `CCOC(=O)C(Cc1ccc(NC(=O)/C(=C/c2ccc(OC(C)=O)cc2)NC(C)=O)cc1)N1C(=O)c2ccccc2C1=O` (stereo unspecified) was tested, and the Potency was active: 89.1 µM. With `N#CC1=C(N)OC2=C(CCc3ccccc32)C1c1ccccc1Cl` (stereo unspecified) the Potency was inconclusive: 35.5 µM [inhibitor, partial curve]. `Cc1nonc1CN(C)C(=O)c1ccc(OC2CCN(C(=O)c3cccnc3)CC2)cc1` was tested, and the Potency was inconclusive: 3.16 µM [inhibitor, single point]. In the case of `COCCCNC(=O)c1cnn(-c2ccccc2Cl)c1C1CCN(C(=O)OC(C)(C)C)CC1`, the “activity change, negative = inhibition” value is reported as inactive: -16.8%. With `Cc1cc(OCC(=O)N(C)Cc2ccccc2)ccc1Cl` the “activity change, negative = inhibition” value was inactive: 16.6%. For `Cc1cccc(C(=O)NCC(c2ccco2)N2CCc3ccccc32)c1` (stereo unspecified), the Potency was inconclusive: 6.31 µM [inhibitor, full curve, poor fit]. With `CCn1c(=O)c(C(=O)NCCNCCO)c(O)c2ccccc21` the Potency was inconclusive: 89.1 µM [inhibitor, single point]. `Cc1cc(C(=O)NNC(=S)NCc2ccco2)n(C)n1` was tested, and the Potency was inconclusive: 20 µM [inhibitor, partial curve]. With `N#Cc1nc(-c2ccco2)oc1N1CCN(c2ccccc2)CC1` the Potency was inconclusive: 31.6 µM [inhibitor, partial curve]. In the case of `CCOc1ccccc1NC(=O)CCS(=O)(=O)c1ccc2c(c1)CC(C)N2C(C)=O` (stereo unspecified), the “activity change, negative = inhibition” value is reported as inactive: -9.21%. `COC(=O)C1Cc2c([nH]c3ccccc23)C2(CCN(Cc3ccccc3)CC2)N1` (stereo unspecified) was tested, and the Potency was inconclusive: 39.8 µM [inhibitor, partial curve]. For `Cn1cc(S(=O)(=O)c2ccc(Cl)cc2)c(=O)c2cc(F)c(N3CCCC3)cc21`, the “activity change, negative = inhibition” value was inactive: -9.9%. With `N#Cc1c(NC(=O)CSc2nc(-c3ccco3)cc(C(F)(F)F)n2)sc2c1CCCC2` the “activity change, negative = inhibition” value was inactive: -11.6%. `COc1ccc(Cl)cc1NC(=O)c1cc2ccc3ccc(C)[nH]c3c2n1` was tested, and the “activity change, negative = inhibition” value was inactive: -18.8%. `Cc1sc2nc(CN3CCCCC3)nc(Cl)c2c1C` was tested, and the Potency was inconclusive: 35.5 µM [inhibitor, partial curve]. For `COc1cc(NC(=O)c2cc(-c3cccs3)on2)c(OC)cc1Cl`, the “activity change, negative = inhibition” value was inactive: -13%. In the case of `Cc1ccc(NC(=O)c2cc(S(=O)(=O)N3CCc4ccccc43)cn2C)cc1C`, the Potency is reported as inconclusive: 79.4 µM [inhibitor, partial curve]. `CCOc1ccccc1N1CCN(C(=O)c2ccc(NS(=O)(=O)c3ccc4[nH]c(=O)[nH]c4c3)cc2)CC1` was tested, and the Potency was inconclusive: 50.1 µM [inhibitor, partial curve]. With `Nc1nc(N)nc(-c2cc([N+](=O)[O-])ccc2O)n1` the Potency was inconclusive: 100 µM [inhibitor, partial curve]. `COc1ccccc1CNC(=O)CCCn1nc(C)c2sc3ccccc3c2c1=O` was tested, and the “activity change, negative = inhibition” value was inactive: -11.9%. For `COc1cccc2c1C(=O)c1c(O)c3c(c(O)c1C2=O)C[C@](O)(C(C)=O)C[C@H]3O[C@@H]1C[C@@H](N)[C@@H](O)[C@@H](C)O1`, the Potency was inconclusive: 50.1 µM [inhibitor, partial curve]. In the case of `COC(=O)C1=C(C)N(CCCC(=O)O)C(=O)NC1c1ccc2c(c1)OCO2` (stereo unspecified), the “activity change, negative = inhibition” value is reported as inactive: -5.52%. With `CCC(C)OC(=O)c1[nH]c2c(c1C)C(=O)CC(c1ccc(N(C)C)cc1)C2` (stereo unspecified) the Potency was inconclusive: 39.8 µM [inhibitor, partial curve]. For `Cc1cc(NC(=O)NCc2ccco2)ccc1NC(=O)NCc1ccco1`, the Potency was inconclusive: 56.2 µM [inhibitor, partial curve]. In the case of `COc1ccc(C(=O)NCCSc2ccccc2)cc1OC`, the Potency is reported as active: 11.2 µM. For `CC(C)(C)OC(=O)N1CCC(c2c(C(=O)N3CCN(c4ccc(Cl)cc4)CC3)cnn2-c2ccc(F)cc2F)CC1`, the Potency was inconclusive: 79.4 µM [inhibitor, partial curve]. For `CC[C@]12c3[nH]c4cc(-c5ccco5)ccc4c3CCN1C(=O)[C@@H](CC(=O)NCCC1=CCCCC1)C[C@@H]2C(=O)N1CCN(C(=O)C2CC2)CC1`, the Potency was inconclusive: 35.5 µM [inhibitor, partial curve]. With `O=C1c2ccc([N+](=O)[O-])cc2C(=O)N1c1ccc([N+](=O)[O-])cn1` the “activity change, negative = inhibition” value was inactive: -20.3%. For `Cc1ccccc1OCC(=O)N(Cc1ccc(N(C)C)cc1)CC1CCCO1` (stereo unspecified), the Potency was active: 44.7 µM. `O=C(CCn1c(=S)[nH]c2ccccc2c1=O)NCCCN1CCOCC1` was tested, and the Potency was inconclusive: 39.8 µM [inhibitor, single point]. In the case of `Cn1cc(-c2cc3n(n2)CCC(=O)N3CC(=O)O)c2ccccc21`, the “activity change, negative = inhibition” value is reported as inactive: -1.68%. `COc1ccc(S(=O)(=O)N2CCCC(C(=O)NCc3ccccc3)C2)cc1` (stereo unspecified) was tested, and the “activity change, negative = inhibition” value was inactive: 1.06%. `CCC(C(=O)NCc1ccco1)n1nc(-c2ccc(OC)cc2)ccc1=O` (stereo unspecified) was tested, and the Potency was inconclusive: 44.7 µM [inhibitor, partial curve]. In the case of `O=S(=O)(Nc1ccc(N=Nc2ccccc2)cc1)c1ccccc1`, the Potency is reported as active: 35.5 µM. `C/C(=N\NC(=S)NCc1ccccc1)c1ccc(C)o1` was tested, and the Potency was inconclusive: 50.1 µM [inhibitor, partial curve]. For `CC(=O)N1c2ccccc2C(=O)C1N1CCN(c2cccc(C(F)(F)F)c2)CC1` (stereo unspecified), the Potency was inconclusive: 63.1 µM [inhibitor, partial curve]. In the case of `O=C(N/N=C/c1cccc2cccnc12)c1ccccc1O`, the Potency is reported as active: 7.94 µM. For `C#CCOCCOCCOCCNc1nc(N2CCN(C(=O)CCCCCCCCCCNC(=O)[C@H](CCCCN)n3cc(CCO)nn3)CC2)nc(N2CCN(C(=O)CCCCCCCCCCNC(=O)[C@H](CCCCN)n3cc(CCO)nn3)CC2)n1`, the Potency was active: 89.1 µM. With `CCCn1c(O)c(CN2CCCCC2)c(C)c(C#N)c1=O` the Potency was inconclusive: 79.4 µM [inhibitor, partial curve]. With `Nc1c(NC=O)c(=O)n(Cc2ccccc2)c(=O)n1Cc1ccccc1` the “activity change, negative = inhibition” value was inactive: -5.78%. In the case of `COc1ccc(OC)c(NC(=O)c2ccc(N3C(=O)C4CC=C(C)CC4C3=O)cc2)c1` (stereo unspecified), the Potency is reported as inconclusive: 63.1 µM [inhibitor, partial curve, poor fit]. For `O=C(O)c1cnnc2ccccc12`, the “activity change, negative = inhibition” value was inactive: -2.07%. For `Cc1ccccc1-n1c(-c2ccoc2C)n[nH]c1=S`, the Potency was active: 7.94 µM. With `O=C(C[n+]1ccncc1)c1ccccc1` the Potency was inconclusive: 89.1 µM [inhibitor, partial curve]. `C(=C1c2ccccc2-c2ccccc21)c1ccccn1` was tested, and the “activity change, negative = inhibition” value was inactive: 144%. For `COc1cc2nc(SCC(=O)c3ccc(Br)cc3)n3nc(C)nc3c2cc1OC`, the Potency was inconclusive: 31.6 µM [inhibitor, partial curve]. `CCCN1CCN(CCCNC(=O)Cn2c(-c3cccs3)cc3ccccc32)CC1` was tested, and the “activity change, negative = inhibition” value was inactive: -24.8%. With `Cc1ccc(NC(=O)CSc2ncnc3c2sc2ccccc23)cc1C` the “activity change, negative = inhibition” value was inactive: -10.4%. For `CCOC(=O)C1C(=O)NC(C(=O)OCC)(C(=O)OCC)C1CC` (stereo unspecified), the “activity change, negative = inhibition” value was inactive: 2.07%. With `Cn1nc(-c2ccccc2F)c2cc(C(=O)N3CCN(c4ccc(F)cc4)CC3)sc21` the Potency was inconclusive: 12.6 µM [inhibitor, full curve]. In the case of `O=C(O)C1=C[C@H](c2ccc(F)cc2)C[C@H](OCCCCO)O1`, the “activity change, negative = inhibition” value is reported as inactive: -23.7%. With `Cc1cccc(C(=O)Nc2cccnc2Cl)c1` the Potency was inconclusive: 28.2 µM [inhibitor, partial curve].

Source: PubChem BioAssay AID504339 (National Center for Advancing Translational Sciences (NCATS), 2011)
Further: nearly all actives have a fitted effect of over 50% in size.
On the % scale 0 is the no-effect control and ±100 the full control effect; potency means the concentration at half of the fitted maximal effect; tags describe the fitted curve by direction and shape.
